Measured values from paper PMC6919601, “Identification of Plasmodium dipeptidyl aminopeptidase allosteric inhibitors by high throughput screening” (PLoS ONE, 2019).
Screen size: about 110,000 compounds; about 230 (0.21%) showed an effect of 50% or more. Some of the results follow.

Biological target: DPAP1 (Plasmodium falciparum, UniProt Q8IIJ9)
Assay: primary screen, percent inhibition; read by cleavage of a fluorogenic dipeptide substrate; higher = more effect of the substance
Set-up: species or system P. falciparum D10 trophozoite lysates; single well
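Further: 30 min substrate incubation versus DMSO and 10 µM JCP410 controls.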

Sequence of DPAP1 (Q8IIJ9 whole entry, looked up): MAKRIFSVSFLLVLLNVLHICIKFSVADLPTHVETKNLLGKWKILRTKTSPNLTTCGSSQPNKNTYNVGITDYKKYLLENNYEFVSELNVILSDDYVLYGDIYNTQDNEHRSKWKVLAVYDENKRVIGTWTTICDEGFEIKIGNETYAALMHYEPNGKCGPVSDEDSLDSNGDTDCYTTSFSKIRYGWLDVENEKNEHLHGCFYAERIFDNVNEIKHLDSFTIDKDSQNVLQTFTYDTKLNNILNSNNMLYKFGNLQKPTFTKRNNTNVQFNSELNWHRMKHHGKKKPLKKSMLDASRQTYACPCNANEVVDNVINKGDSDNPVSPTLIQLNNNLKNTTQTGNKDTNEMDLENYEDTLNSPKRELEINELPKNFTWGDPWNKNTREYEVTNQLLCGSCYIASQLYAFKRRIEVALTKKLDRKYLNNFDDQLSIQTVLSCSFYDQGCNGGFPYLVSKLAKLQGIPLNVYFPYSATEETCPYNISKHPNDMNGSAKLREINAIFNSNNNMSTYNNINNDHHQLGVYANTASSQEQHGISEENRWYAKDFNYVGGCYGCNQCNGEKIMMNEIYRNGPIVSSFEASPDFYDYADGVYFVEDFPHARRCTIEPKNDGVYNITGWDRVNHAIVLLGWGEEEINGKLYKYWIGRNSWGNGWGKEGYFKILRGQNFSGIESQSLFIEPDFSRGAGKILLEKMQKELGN

First: O=C(NCCc1csc2nc(-c3ccccc3)nn12)c1ccco1
Second: Cc1nc2ccc(C(=O)NCc3ccccc3)cc2s1
The “% Inhibition @ 10 uM” value of the first is lower: -1.71% for the first, 2.4% for the second.

First: CC1(C)CC(=O)C2=C(C1)c1c(ccc3ccccc13)NC2c1cccc([N+](=O)[O-])c1 (centres unmarked)
Second: O=C(Nc1ccc2ccccc2c1)c1ccc([N+](=O)[O-])cc1Cl
The “% Inhibition @ 10 uM” value of the first is higher: 3.06% for the first, -4.87% for the second.

Going from `Cc1ccc(CNC(=O)CN(Cc2ccccc2)S(C)(=O)=O)cc1` to `COc1ccc(S(=O)(=O)NCc2ccc(C)cc2)cc1`, the “% Inhibition @ 10 uM” value rises from -1.92% to -1.5%.

Going from `CC1CN(c2nc3c(c(=O)n(Cc4ccccc4Cl)c(=O)n3C)n2C)CC(C)O1` (centres unmarked) to `CC1CN(C(=O)Cn2cc(SCC(=O)NCc3ccccc3Cl)c3ccccc32)CC(C)O1` (centres unmarked), the “% Inhibition @ 10 uM” value rises from -3.47% to -1.11%.

Going from `CN(CCCNC(=O)c1cc2c(s1)-c1ccccc1OC2)Cc1ccccc1` to `Cc1c(-c2ccccc2)nc2ccccc2c1C(=O)NC1CC1`, the “% Inhibition @ 10 uM” value rises from 0.291% to 6.37%.

Going from `Cc1ccc(-c2cn3c(n2)sc2cc(C(=O)N4CCC(C(N)=O)CC4)ccc23)cc1` to `Cc1ccc(-c2cn3nc(N4CCC(C(=O)NCCN(C)C)CC4)sc3n2)cc1`, the “% Inhibition @ 10 uM” value falls from -0.901% to -3.6%.

Going from `Cc1cccc(-c2cc(C(=O)Nc3nc(C)c(C(=O)N(C)C)s3)c3ccccc3n2)c1` to `Cc1ccc2nc(/N=C(\N)NC(=O)c3ccccc3)nc(C)c2c1`, the “% Inhibition @ 10 uM” value rises from -2.9% to 7.1%.

Going from `Cc1cc(C(=O)NCc2cccs2)c2c(C)nn(-c3ccccc3Cl)c2n1` to `Cc1c(Cl)cccc1-n1nc(C)c2c(C(=O)O)cc(C3CC3)nc21`, the “% Inhibition @ 10 uM” value rises from 3.75% to 6.65%.

First: Cc1cccc(NC(=O)c2ccc(COc3cccc4ccccc34)o2)n1
Second: O=C(NCc1cccnc1)c1cccc(COc2cccc3ccccc23)c1
The “% Inhibition @ 10 uM” value of the first is lower: 0.413% for the first, 3.72% for the second.

Going from `N#CC1=C(N)Oc2[nH]nc(-c3cccs3)c2C1c1ccncc1` (centres unmarked) to `CCN1C=C(Cc2ccccc2C)C2=C(C1)C(c1ccccc1C)C(C#N)=C(N)O2` (centres unmarked), the “% Inhibition @ 10 uM” value falls from 3.92% to 2.32%.

First: CCC(C)NC(=O)COc1ccc(Br)cc1C (centres unmarked)
Second: CCN(C(=O)COc1cc(C)ccc1C)c1ccccc1
The “% Inhibition @ 10 uM” value of the first is lower: -3.83% for the first, 16.2% for the second.

First: COCCO/C(O)=C1\C(C)=NC2=C(C(=O)CCC2)C1c1ccc(OCc2ccccc2)c(OC)c1 (centres unmarked)
Second: CCCO/C(O)=C1/C(C)=NC2=C(C(=O)CC(C)(C)C2)C1c1ccc(SC)cc1 (centres unmarked)
The “% Inhibition @ 10 uM” value of the first is higher: -0.769% for the first, -1.32% for the second.

First: COc1ccc(C(=O)N[C@@H](Cc2ccc([N+](=O)[O-])cc2)C(=O)NCC#N)cc1
Second: CCc1cccc(C(=O)N[C@@H](CC(C)C)C(=O)NCC#N)c1
The “% Inhibition @ 10 uM” value of the first is lower: -5.64% for the first, 3.19% for the second.

First: COc1ccc(-c2noc(CN(C(=O)CC(C)(C)C)C(C)C)n2)cc1
Second: CC(C)CNc1nc(Oc2ccc(OCC(N)=O)nn2)nc(N(C)C)n1
The “% Inhibition @ 10 uM” value of the first is lower: -8.22% for the first, -4.91% for the second.

Going from `CC(C)(C)/N=C/c1cc(-c2ccccc2)sc1S` to `Cc1cc2nc3s/c(=C/c4ccccc4F)c(=O)n3c2cc1C`, the “% Inhibition @ 10 uM” value falls from 24.6% to 6.66%.

Compared with `CCCN1C(=O)S/C(=C\c2cccc(OC)c2OC(C)C)C1=O`, `C=CCOc1ccc(/C=C2/C(=N)N3C(=NC2=O)SN=C3S(=O)(=O)CC)cc1OC` is higher in “% Inhibition @ 10 uM” value: 1.28% for the first, 1.85% for the second.

`COc1ccc(-c2cn3ccccc3n2)cc1Br` and `COc1ccc(CNC(=S)c2ccccc2)cc1OC` are the same in “% Inhibition @ 10 uM” value: 3.8% for the first, 3.8% for the second.

Going from `Cc1ccc(C)c(CN(C)C2CCN(C)CC2)c1` to `CCc1ccc(CN(C(=O)c2cc(=O)c3cc(C)cc(C)c3o2)C2CCS(=O)(=O)C2)cc1` (centres unmarked), the “% Inhibition @ 10 uM” value rises from -1.86% to -1.47%.

First: Cn1c(=O)c2c(nc(N3CCCCC3)n2C)n(C)c1=O
Second: Cn1c(SCC(=O)N2CCOCC2)nc2sc3c(c2c1=O)CCCC3
The “% Inhibition @ 10 uM” value of the first is lower: -6.83% for the first, -0.0959% for the second.

Compared with `Cc1cc(O)n(-c2ccc(S(=O)(=O)O)cc2)n1`, `COC(=O)c1ccc(N2C(=O)c3cccc(Br)c3C2=O)cc1O` is higher in “% Inhibition @ 10 uM” value: -5.51% for the first, -0.261% for the second.

Going from `C=C(C)CNC(=S)Nc1nccs1` to `Cc1ccc(NC(=O)NCc2noc3ccccc23)nc1`, the “% Inhibition @ 10 uM” value falls from 0.774% to -3.48%.

Compared with `COc1cc(/C=C2\C(=N)N3N=C(S(C)(=O)=O)SC3=NC2=O)cc(OC)c1OC`, `N=C1/C(=C\c2coc3ccccc3c2=O)C(=O)N=C2SC(C3CCCCC3)=NN12` is lower in “% Inhibition @ 10 uM” value: -1.58% for the first, -2.19% for the second.

First: N#CCCN1CCN(S(=O)(=O)c2ccc(S(=O)(=O)N3CCOCC3)cc2)CC1
Second: Cc1ccccc1NC(=O)c1ccc(S(=O)(=O)N2CCOCC2)c(C)c1
The “% Inhibition @ 10 uM” value of the first is lower: -1.82% for the first, 2.33% for the second.

Going from `Cc1c(CCC(=O)NCCc2ccc(F)cc2)c(=O)oc2c(C)c(O)ccc12` to `NS(=O)(=O)c1ccc(CCNC(=O)CCCCCNc2nc(S)nc3ccccc23)cc1`, the “% Inhibition @ 10 uM” value rises from -4.39% to 1.09%.

First: Cc1ccccc1NC(=O)c1cccc(S(=O)(=O)Nc2cccc([N+](=O)[O-])c2)c1
Second: O=C(Nc1ccc([N+](=O)[O-])cc1Cl)c1ccc([N+](=O)[O-])cc1
The “% Inhibition @ 10 uM” value of the first is lower: -1.74% for the first, -0.771% for the second.

Compared with `Nc1ccc(Oc2ccc(C(=O)O)cc2)cc1`, `COc1ccc(C(=O)N2CCN(Cc3ccc(Cl)cc3)CC2)cc1` is lower in “% Inhibition @ 10 uM” value: 2.94% for the first, -1.88% for the second.

Going from `CSCCOC(=O)C1=C(C)NC(=O)NC1c1cccc(Br)c1` (centres unmarked) to `CCOC(=O)C1=C(Cn2cnc3ccccc32)NC(=O)NC1c1cc(C)ccc1C` (centres unmarked), the “% Inhibition @ 10 uM” value rises from -0.582% to 3.36%.

Going from `COc1ccccc1C(=O)NC1CCN(c2ncccn2)CC1` to `Cc1cccnc1NC(=O)c1ccccc1C(=O)O`, the “% Inhibition @ 10 uM” value falls from -2.88% to -6.6%.

First: Nc1cc(=O)n2c(C(=O)Nc3ccccc3)nn(-c3ccccc3)c2n1
Second: CC1CC(Nc2ccccc2)c2ccccc2N1C(=O)c1ccccc1Br (centres unmarked)
The “% Inhibition @ 10 uM” value of the first is lower: -5.26% for the first, -2.32% for the second.

Going from `CC(NC(=O)/C(=C/c1ccccc1)NC(=O)c1cccc(Br)c1)C(=O)O` (centres unmarked) to `CCNC(=O)/C(=C\c1ccco1)NC(=O)c1cccc(Br)c1`, the “% Inhibition @ 10 uM” value falls from 3.89% to 2.51%.

Compared with `COc1ccc(S(=O)(=O)Nc2cccc(Cl)c2Cl)cc1OC`, `COc1cc(Br)cc2cc(S(=O)(=O)c3ccc(C(C)(C)C)cc3)c(=O)oc12` is lower in “% Inhibition @ 10 uM” value: -1.96% for the first, -4.97% for the second.

Going from `O=C(C(c1ccccc1)c1ccccc1)N1CCOCC1` to `Cc1onc(-c2ccccc2)c1C(=O)N1CCCN(C(=O)c2c(-c3ccccc3)noc2C)CC1`, the “% Inhibition @ 10 uM” value falls from 0.878% to 0.83%.

Compared with `O=C(CN1C(=O)S/C(=C\c2cc3c(cc2Cl)OCO3)C1=O)N1CCOCC1`, `O=C(/C=C/c1ccc2c(c1)OCO2)c1ccccn1` is lower in “% Inhibition @ 10 uM” value: 12.2% for the first, -1.77% for the second.

Going from `O=C(Nc1ccc(Br)cn1)c1cccc2c1-c1ccccc1C2=O` to `COc1ccc(C(=O)CC(Sc2ccccc2N)c2cccc(Br)c2)cc1` (centres unmarked), the “% Inhibition @ 10 uM” value rises from -1.72% to -1.29%.

First: COC(=O)/C(C#N)=C/c1ccc(OC)c(OC)c1OC
Second: COc1cc(OC)c(CN2CCCC(O)C2)cc1Br (centres unmarked)
The “% Inhibition @ 10 uM” value of the first is lower: -5.64% for the first, -3.56% for the second.

Going from `CC(=O)Nc1ccc(S(=O)(=O)Nc2ccc(-c3cn4cccnc4n3)cc2)cc1` to `O=C(CSc1nc2ccccc2[nH]1)Nc1ccccn1`, the “% Inhibition @ 10 uM” value rises from -1.63% to 1.42%.

Going from `CNS(=O)(=O)c1cn(CC(=O)Nc2cccc(C)n2)cc1S(=O)(=O)NC` to `CCC1C(=O)N=C(SCC(=O)NCc2ccccc2)NC1=O` (centres unmarked), the “% Inhibition @ 10 uM” value falls from 1.91% to -4.11%.

Compared with `CCOC(=O)C1CCN(CC2CC3C=CC2C3)CC1` (centres unmarked), `Cc1ccc(OCCCCCCN2CCNCC2)cc1` is higher in “% Inhibition @ 10 uM” value: -5.65% for the first, -5.54% for the second.

First: CCC(Oc1ccccc1)C(=O)Nc1ccccc1Cl (centres unmarked)
Second: CCn1c(/C=C/c2ccc(OC)cc2)nc2ccccc21
The “% Inhibition @ 10 uM” value of the first is higher: -7.08% for the first, -7.09% for the second.

Compared with `Cc1ccc2nc(NCc3ccc(C(=O)O)cc3)c3nnnn3c2c1`, `O=C1NC(=O)/C(=C\c2cc(Br)ccc2OCc2ccc(C(=O)O)cc2)N1` is higher in “% Inhibition @ 10 uM” value: 1.86% for the first, 6.89% for the second.

First: O=C(CCc1nnc2ccc(N3CCOCC3)nn12)NCc1ccccc1Cl
Second: O=C(c1ccc(Cl)cc1Cl)N1CCN(c2ccc(F)cc2)CC1
The “% Inhibition @ 10 uM” value of the first is lower: -8.38% for the first, 0.135% for the second.

Going from `Cc1ccc(O)c2nc(/C=C/c3ccccc3[N+](=O)[O-])ccc12` to `O=[N+]([O-])c1ccc(N2CCN(c3ccccc3)CC2)c2ncccc12`, the “% Inhibition @ 10 uM” value rises from -4.96% to 4.47%.

Compared with `COc1ccc(C2(O)C(C)CCCC2C)cc1` (centres unmarked), `COc1ccc(/C=C2\SC(N3CCN(Cc4ccccc4)CC3)=NC2=O)cc1` is higher in “% Inhibition @ 10 uM” value: -6.58% for the first, -3.49% for the second.

First: CC(C)C[C@H](NC(=O)c1ccc(-c2cnc(N=C(N)N)s2)cc1)C(=O)N[C@@H](Cc1cccnc1)C(N)=O
Second: Cc1ccc(-n2nc3c(=O)n(C(C)C(=O)NCc4cccc(Cl)c4)nc(C)c3c2C)cc1 (centres unmarked)
The “% Inhibition @ 10 uM” value of the first is higher: 3.19% for the first, 2.82% for the second.

Compared with `Cn1ncc2c(NCCc3ccccc3)ncnc21`, `O=C1c2nccnc2C(=O)N1c1cccc2ccccc12` is higher in “% Inhibition @ 10 uM” value: -0.247% for the first, 1.66% for the second.

Compared with `Cc1csc(NC(=O)CCc2c(C)nc3cc(-c4ccc(Cl)cc4)nn3c2C)n1`, `Cc1nc2nc(NCc3ccc(F)cc3)nn2c(O)c1C` is lower in “% Inhibition @ 10 uM” value: 4.54% for the first, 4.18% for the second.

Compared with `O=S1(=O)CC2(N3CCOCC3)CCCC21` (centres unmarked), `O=C(c1cccc(F)c1)N1CCN(C(=O)c2ccco2)CC1` is lower in “% Inhibition @ 10 uM” value: -1.85% for the first, -2.89% for the second.

Going from `NS(=O)(=O)c1ccc(CCNC2CC(=O)N(c3ccc(OC(F)(F)F)cc3)C2=O)cc1` (centres unmarked) to `CCOc1ccc(-c2csc3nc(-c4ccccc4OC)oc(=O)c23)cc1`, the “% Inhibition @ 10 uM” value rises from -21.3% to 0.275%.

Going from `O=C(Nc1cccc(C(F)(F)F)c1)[C@@H]1C2C=CC(C2)[C@@H]1C(=O)O` (some centres unmarked) to `COCc1cc(C2SCC(=O)Nc3c2c(C)nn3C2CCOC(C)(C)C2)ccc1OC` (centres unmarked), the “% Inhibition @ 10 uM” value rises from -1.45% to 2.89%.
